The source of these data is the supplement of paper PMC10338343.

± gives the standard deviation. The entries are a selection whose mix differs from that of the whole data set. Where only a bound is given, the exact number is not on record here.

The assay has as its system MIWI (PIWIL1) piRISC loaded with piRNA #1 (30 nt). Put plainly: pre-steady-state target cleavage rate (min^-1); MIWI and MILI are mouse PIWI proteins and EfPiwi is from a freshwater sponge; tags in brackets are library labels; higher = faster piRNA-guided slicing of the target. The note with it: guide: piRNA #1 5'p-UGAGGUAGUAGGUUGUAUAGUAUCCAGAGG; auxiliary factor: 500 nM mouse GTSF1. A digest of the protocol: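 At 33 °C in HEPES–potassium acetate buffer, a transcribed, DNA-blocked target RNA library […] was exposed for 0–8 or 0–960 min to 1 nM active affinity-purified piRISC carrying a single synthetic guide, with or without 500 nM GTSF1 partner protein. Uncleaved targets were sequenced and normalised to depth and to weakly complementary targets. With three trials pooled and k3 capped at 0.0001 min^-1, a burst-and-steady-state fit produced the pre-steady-state cleavage rate.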
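Further: 1 nM active piRISC with 0.1 nM target library at 33 °C single turnover.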

Take GGAGACCUUAGUAUACAACGUACUACCUCA: the “pre-steady-state target cleavage rate” value is 0.0699 ± 0.015.
In the case of GGUCUGGAUACUAUACAAGCUACUACGUCA it was 0.986 ± 0.046; in that of GGAGUGGAAACUAUACUACCUACUACCUCA, 0.854 ± 0.065.
With GGAGACCAUACUAUACAACCCACUACCUCA the figure was 0.675 ± 0.031.
In the case of CCUCUGGAUACUAUACAACCUACUACCUGCA it was 1.38 ± 0.098; in that of GGAGAGGAUACUAUACAACCUCCUACCUCA, 0.964 ± 0.037; in that of CCUCUGGAUACUAUACAACCUUCUACCUCA, 0.706 ± 0.04.
Take CCUCUAGGAUACUAUACAACCUACUACCUCA: the “pre-steady-state target cleavage rate” value is 2.12 ± 0.12.
In the case of GCUCUGGAUACUAUACAACCUACUACGUCA it was 1.23 ± 0.072.
In the case of GGAGACCUAUCUAUACAACCAACUACCUGA it was 0.00805 ± 0.0033; in that of GGAGUGCAUACUAUACAACCUACUACCACA, 0.667 ± 0.05.
With CCUCUGGAUACUAUACUACCUACUAGCUCA the figure was 1.34 ± 0.13; with GGAGACCAUACUAUACAUCCUACAACCUCA, 0.68 ± 0.057; with GGAGUGGAUAGUAUACAACCUUCUACCUCA, 0.37 ± 0.023.
Turning to GGAGACCUAUGUUUACAACCUAGUACCUCA, the “pre-steady-state target cleavage rate” value amounted to 0.00374 ± 0.0022.
As to GGAGUGGAUACAAUACAACCUUCUACCUCA, the “pre-steady-state target cleavage rate” value stood at 0.604 ± 0.033.
With GGAGUGGACUACUAUACAACCUACUACCUCA the figure was 1.47 ± 0.096; with GGAGACCUAUGAGUACAACCUACUACCUCA, 0.00572 ± 0.0029; with GGUCUGGAUACUAUACAACCUACUAACCUCA, 0.939 ± 0.073.
In the case of GGAGACCUAUGUAUACAACCUAGUACGUCA it was 0.0105 ± 0.0022; in that of GGACUGGAUACUUUACAUCCUACUACCUCA, 1.25 ± 0.11; in that of GGUGUGGAUACUAUACAACCUACAACCUCA, 0.35 ± 0.05.
With GGAGUGGAUACUAUACACCUACUACCUCA the figure was 0.238 ± 0.028; with GGAGACCUUAGUAUACAACCUAGUACCUCA, 0.16 ± 0.022; with GGAGACCUAUCUCUACAACCUACUACCUCA, 0.242 ± 0.034.
Take GGAGACCUAACUAUACAACCUACUUACCUCA: the “pre-steady-state target cleavage rate” value was found to be 0.992 ± 0.067.
With GGAGACCUAACUAUACAUCCUACAACCUCA the figure was 0.274 ± 0.069; with GGAGACCUAUCUUAUCAACCUACUACCUCA, 0.00585 ± 0.003; with CCUCUGGAUACUAUACAACCUACUCACCUCA, 0.86 ± 0.073.
In the case of GGUCUGGAUACUAUAGAACCUUCUACCUCA it was 0.0303 ± 0.0067; in that of GGACUCGAUACUAUAGAACCUACUACCUCA, 1.46 ± 0.098.
With GGAGUGGAUACUAGUACAACCUACUACCUCA the figure was 1.29 ± 0.078.
As to GGAGACCUAAGUAUACAACCUAGUACCUCA, the “pre-steady-state target cleavage rate” value was 0.0434 ± 0.0083.
GGAGACCUUACUAUACUUCCUACUACCUCA: the “pre-steady-state target cleavage rate” value was determined as 0.0399 ± 0.0077.
In the case of GGAGACCUAUGUAUACCACCUACUACCUCA it was 0.0149 ± 0.0026; in that of GGAGACCUAACUAAACAACGUACUACCUCA, 0.00492 ± 0.0039.
In the case of GGAGACCUUACUAUACAAGGUACUACCUCA it was 0.136 ± 0.023; in that of GGAGUGGAGUACUAUACAACCUACUACCUCA, 1.43 ± 0.12; in that of GCUCUGGAUACUAUACUACCUAGUACCUCA, 0.396 ± 0.056.
With GGACUGGUUACUAUACUACCUACUACCUCA the figure was 1.09 ± 0.15; with GGAGAGGAUACUAUACAACCUACUAUCUCA, 1.42 ± 0.1; with GCUCUGGAUACUAUACGAACCUACUACCUCA, 0.0084 ± 0.0051.
For GGAGACCAUACUAUAAAACCUACUACCUCA, the “pre-steady-state target cleavage rate” value was determined as 1.3 ± 0.082.
Regarding GGAGUGGAUACUAUACUACCUACUACCUCA, the “pre-steady-state target cleavage rate” value turned out to be 1.25 ± 0.077.
With GGACUGGAUACUAAACAACCUUCUACCUCA the figure was 0.641 ± 0.043; with GGAGACCAUACUAUACAACCUACGACCUCA, 0.921 ± 0.059; with CCACUGGAUACUAUACAACCUAGUACCUCA, 0.131 ± 0.023.
With GGAGUGGUUACAAUACAACCUACUACCUCA the figure was 1.2 ± 0.079; with GGAGAGGAUACUAUACAACCUACUACACUCA, 0.864 ± 0.088.
With GGACUGGAUACUAUACUACCUACAACCUCA the figure was 0.39 ± 0.057; with GGAGACCUAACUAAUCAACCUACUACCUCA, 0.0103 ± 0.0055; with GGAGACGAUACUUAUCAACCUACUACCUCA, 0.407 ± 0.058.
For the sequence GGUCUCGAAACUAUACAACCUACUACCUCA, the “pre-steady-state target cleavage rate” value amounted to 1.57 ± 0.11.
GGAGACGAUACUUUACAACCUACUACCUGA: the “pre-steady-state target cleavage rate” value amounted to 0.496 ± 0.085.
Take GGUCUGGAUUCUAUACAACCAACUACCUCA: the “pre-steady-state target cleavage rate” value stood at 0.114 ± 0.0099.
Consider GGAGACCAAACUAUACAACCUACUACGUCA, for which the “pre-steady-state target cleavage rate” value was 0.597 ± 0.058.
GGAGACCUUUCUAUACAACCUACUACCUGA: the “pre-steady-state target cleavage rate” value came to 0.47 ± 0.045.
In the case of GGACUCGUUACUAUACAACCUACUACCUCA it was 1.42 ± 0.13.
With CCUCUGGAAACUAUACAACCUACUAGCUCA the figure was 1.21 ± 0.13; with GGUCUGGAUACUAUUCAACCUACUAGCUCA, 0.0661 ± 0.014; with GGUCUGCAUACUAUAGAACCUACUACCUCA, 1.29 ± 0.081.
With GGAGACCUAUGAAUACAACCUCCUACCUCA the figure was 0.00268 ± 0.0024; with GGACUGGAUACUAUACAAGCUACUACCACA, 1.54 ± 0.088.
Turning to GGUCUGGAUUACUAUACAACCUACUACCUCA, the “pre-steady-state target cleavage rate” value worked out at 1.66 ± 0.1.
For the sequence CCACUGGAUACUAUACAACGUACUACCUCA, the “pre-steady-state target cleavage rate” value came out at 0.98 ± 0.044.
In the case of GGUCUGGAUACUAUACAUCCUAGUACCUCA it was 0.24 ± 0.04; in that of GGUCUGGAUUCUAUACAACCUACUACCUGA, 0.796 ± 0.14.
With GGACUGGAUACUAUACAACCUUCUAGCUCA the figure was 0.00299 ± 0.0024; with GGUCUGGUUACUAUACAACCUUCUACCUCA, 0.746 ± 0.038; with GGAGACCUAUGAAUACAACCUACUAACUCA, 0.00651 ± 0.0035.
In the case of GGAGACCUAUCUAUACUACCUUCUACCUCA it was 0.00801 ± 0.0025; in that of GGAGACCUAUGAUAUGUUCCUUCUACCACA, under 0.0001; in that of CCUCUGGAUUCUAUACAACCUACUAGCUCA, 0.43 ± 0.052.
Consider GGAGACCUAUCUAUACAACCUACUACCGCA, for which the “pre-steady-state target cleavage rate” value was determined as 1.05 ± 0.092.
As for GGAGACCUUACUAUACAACCUACUACGAGA, the “pre-steady-state target cleavage rate” value came to 0.361 ± 0.071.
In the case of GGAGACCAUACAAAACAACCUACUACCUCA it was 0.154 ± 0.051; in that of CGUCUGGAUACUAUACAACCUACUACGUCA, 1.59 ± 0.082; in that of GGUCUGGAUACUAACAACCUACUACCUCA, 1.81 ± 0.14.
With GGAGACCUAUCUAUACAACUUACUACCUCA the figure was 0.259 ± 0.019; with GGAGAGGUAACUAUACAACCUACUACCUCA, 0.489 ± 0.045.
In the case of GGAGAGGUUACUAUACAACCUACUACGUCA it was 0.0697 ± 0.012; in that of GGACUGGAUAGUAAACAACCUACUACCUCA, 0.427 ± 0.054.
For the sequence GGAGACGUUACUAUACUACCUACUACCUCA, the “pre-steady-state target cleavage rate” value stood at 1.03 ± 0.082.
With GGAGUGGUUAGUAUACAACCUACUACCUCA the figure was 0.605 ± 0.047; with GCUCUGGAUACUAUACAACCUAGAUCCUCA, 0.156 ± 0.03; with GGAGUGGAUUCUAUACAACCUAGUACCUCA, 0.484 ± 0.064.
In the case of GGAGACCUUACUAUAGAACCUACUACCUCA it was 0.815 ± 0.064.
In the case of GGAGACCUAUCUAUAGAACCUACUACCUGA it was 0.0987 ± 0.022.
As to GGAGUGGAUACUAUACAACCUUCUACCACA, the “pre-steady-state target cleavage rate” value came out at 0.138 ± 0.022.
With GGAGUGGAUCUAUACAACCUACUACCUCA the figure was 1.58 ± 0.1; with GGAGACGAUACUAUACAUCCUACUAGCUCA, 0.608 ± 0.046.
For the sequence GGUCUGGAUACUAUACAUCCAACUACCUCA, the “pre-steady-state target cleavage rate” value was determined as 0.0978 ± 0.016.
Turning to GGAGAGGAUACUAUAUAACCUACUACCUCA, the “pre-steady-state target cleavage rate” value worked out at 1.39 ± 0.067.
With GGAGACCUAUGAUAUGUACCUAUCUACCUCA the figure was under 0.0001.
In the case of GGAGACCUAUCUACACAACCUACUACCUCA it was 0.396 ± 0.04; in that of CCUCUGGAUACUUUAGAACCUACUACCUCA, 1.09 ± 0.069; in that of CCUCUGGAUAGUAUACAACCUACUACCACA, 0.0403 ± 0.012.
In the case of GGAGACCUAUCUAUACUAGCUACUACCUCA, the “pre-steady-state target cleavage rate” value came out at 0.00864 ± 0.0029.
With GGAGACGAUACUAUACAUCCUAGUACCUCA the figure was 0.302 ± 0.033; with CCUCUGGAUACUAUACAACGUACUAGCUCA, 0.572 ± 0.054.
GGAGACCAUACUAUACAACCUAAUACCUCA: the “pre-steady-state target cleavage rate” value is 1.11 ± 0.1.
With GGAGAGGAUACUAUACAACUACUACCUCA the figure was 0.241 ± 0.021; with GGUCUGGAUACUAUCAACCUACUACCUCA, 1.68 ± 0.12.
GGAGACCAUACUAUACAACGUACUAGCUCA: the “pre-steady-state target cleavage rate” value was found to be 0.125 ± 0.024.
In the case of GGUCGGAUACUAUACAACCUACUACCUCA it was 1.62 ± 0.12; in that of GGAGACCAUACUUUACAACCUACUACCUGA, 0.566 ± 0.075.
On to GGAGACCUAUGUAUACAACCUACAACCUCA, for which the “pre-steady-state target cleavage rate” value was determined as 0.017 ± 0.0037.
On to GGACUGGAUACUAUACAACCUACUCACCUCA, for which the “pre-steady-state target cleavage rate” value came out at 0.628 ± 0.077.
In the case of GCUCUGCAUACUAUACAAGCUACUACCUCA it was 1.42 ± 0.07; in that of CCUCUCGAUACUAUACAACCUACUUCCUCA, 1 ± 0.057; in that of GGAGACCUAUGAAAAGAACCUACUACCUCA, under 0.0001.
With “GGAGACCUAUGUAUACAACCUACUACCUCU [g2:g19:cont:t1U]” the figure was 0.187 ± 0.016.
Turning to GGAGACCUUACUAUACAACCUACUACGCUCA, the “pre-steady-state target cleavage rate” value amounted to 1.22 ± 0.074.
With GGAGUCGAUUCUAUACAACCUACUACCUCA the figure was 1.59 ± 0.097; with GGACAGGAUACAAUACAACCUACUACCUCA, 1.59 ± 0.092.
With GGAGACGAAACUUUACAACCUACUACCUCA the figure was 0.744 ± 0.077; with GGAGAGGAUACUAUACUACCUAGUACCUCA, 0.0428 ± 0.012; with GGAGACGAUUCUAUACAUCCUACUACCUCA, 1.29 ± 0.088.
In the case of CCUCUGGAUACAAUACAACCUACAACCUCA, the “pre-steady-state target cleavage rate” value turned out to be 1.52 ± 0.11.
With CCUGAGGAUACUAUACAACCUACUACCUCA the figure was 0.242 ± 0.045.
